Measurements as given in the supplement of paper PMC4604168 (melanoma cell lines).
Some of the results follow. Many values rest on one well or one pass, so single values are uncertain.

What was measured:
Assay in all cases: cell count relative to DMSO control; melanoma cells; higher = more viable cells
Details in all cases: library dose: low library concentration; 72 h
MZ2-MEL = test system: MZ2-MEL
MeWo = test system: MeWo
RPMI7951 = test system: RPMI7951
RVH-421 = test system: RVH-421
SkMel28 = test system: SkMel28
SkMel2 = test system: SkMel2
SkMel30 = test system: SkMel30
SkMel5 = test system: SkMel5
UACC257 = test system: UACC257
UACC62 = test system: UACC62
WM115 = test system: WM115
WM1716 = test system: WM1716
WM1745 = test system: WM1745
WM3526 = test system: WM3526
WM3619 = test system: WM3619
WM451Lu = test system: WM451Lu
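Also: cell number obtained by counting DAPI-stained nuclei in high-throughput microscope images with image analysis software, screen run in 1,536-well plates.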

SMILES	cell count (MZ2-MEL)	cell count (MeWo)	cell count (RPMI7951)	cell count (RVH-421)	cell count (SkMel28)	cell count (SkMel2)	cell count (SkMel30)	cell count (SkMel5)	cell count (UACC257)	cell count (UACC62)	cell count (WM115)	cell count (WM1716)	cell count (WM1745)	cell count (WM3526)	cell count (WM3619)	cell count (WM451Lu)
NC1(c2ccc(-c3nc4ccn5c(=O)[nH]nc5c4cc3-c3ccccc3)cc2)CCC1 + CN(C)S(=O)(=O)c1ccc2c(c1)/C(=C/c1cc3c([nH]1)CCCC3)C(=O)N2 [SU6656] (first compound 0.4 µM, partner dose 0.4 µM)	99.4%	81.8%	96.9%	78%	78.9%	75.1%	80.1%	90.4%	96.8%	72.5%	63.9%	85.1%	81.4%	74.8%	96.1%	97.9%
CN(c1ncccc1CNc1nc(Nc2ccc3c(c2)CC(=O)N3)ncc1C(F)(F)F)S(C)(=O)=O + COc1cc2ncnc(Nc3ccc(Oc4ccccc4)cc3)c2cc1OC [SrcI1] (first compound 0.08 µM, partner dose 2 µM)	86.6%	91.1%	78.1%	102%	88.5%	90%	81.9%	90.8%	81.7%	82.3%	90.1%	102%	73.9%	92.3%	101%	52.1%
CCCS(=O)(=O)Nc1ccc(F)c(C(=O)c2c[nH]c3ncc(Cl)cc23)c1F + O=C(Nc1ccccc1)c1cc([N+](=O)[O-])ccc1Cl [GW9662] (first compound 0.08 µM, partner dose 2 µM)	87.8%	107%	104%	101%	79.8%	98.3%	96.9%	103%	116%	55.1%	96.3%	103%	86.5%	78.5%	101%	97.6%
CN(c1ncccc1CNc1nc(Nc2ccc3c(c2)CC(=O)N3)ncc1C(F)(F)F)S(C)(=O)=O + Cc1cc(N2CCOCC2)cc2[nH]c(-c3c(NC[C@@H](O)c4cccc(Cl)c4)cc[nH]c3=O)nc12 [BMS536924] (first compound 0.08 µM, partner dose 0.2 µM)	94.7%	101%	86.7%	87.3%	106%	93.9%	91.9%	91.9%	75.9%	107%	83.1%	104%	64.2%	88.4%	94.1%	75.9%
NC1(c2ccc(-c3nc4ccn5c(=O)[nH]nc5c4cc3-c3ccccc3)cc2)CCC1 + CN(NC(=O)CC(=O)NN(C)C(=S)c1ccccc1)C(=S)c1ccccc1 [STA4783] (first compound 0.4 µM, partner dose 0.006 µM)	98.8%	82.6%	91.5%	72.5%	73.1%	85.6%	97.8%	84.5%	86.6%	79.6%	59.8%	60.9%	35.8%	66.7%	68.9%	78.2%
CN(c1ncccc1CNc1nc(Nc2ccc3c(c2)CC(=O)N3)ncc1C(F)(F)F)S(C)(=O)=O + C=CCn1c(=O)c2cnc(Nc3ccc(N4CCN(C)CC4)cc3)nc2n1-c1cccc(C(C)(C)O)n1 [MK1775] (first compound 0.08 µM, partner dose 0.02 µM)	88.5%	94.3%	91.2%	74%	73.8%	90%	97.1%	72.1%	57.8%	73.1%	81.8%	83.4%	68%	94.1%	74.6%	86.3%
C=C(c1ccc(C(=O)O)cc1)c1cc2c(cc1C)C(C)(C)CCC2(C)C [Bexarotene] + Cc1cc(N2CCOCC2)cc2[nH]c(-c3c(NC[C@@H](O)c4cccc(Cl)c4)cc[nH]c3=O)nc12 [BMS536924] (first compound 2 µM, partner dose 0.2 µM)	96.1%	94.7%	79.9%	107%	78.5%	80.1%	97.8%	82%	83.8%	102%	99.5%	90.7%	57%	84.3%	98.8%	116%
CCCS(=O)(=O)Nc1ccc(F)c(C(=O)c2c[nH]c3ncc(Cl)cc23)c1F + Oc1cc(-c2nc(-c3ccccc3)[nH]c2-c2ccncc2)ccc1Cl [L779450] (first compound 0.08 µM, partner dose 0.2 µM)	80.6%	88.9%	114%	79.8%	69.2%	98.3%	93.3%	97.6%	64.8%	48.5%	71%	96.2%	86.7%	55.1%	77.1%	93.3%
CN(c1ncccc1CNc1nc(Nc2ccc3c(c2)CC(=O)N3)ncc1C(F)(F)F)S(C)(=O)=O + COc1ccc(-c2ccc3c(N4CCOCC4)nc(N4C[C@@H](C)O[C@@H](C)C4)nc3n2)cc1CO [KU0063794] (first compound 0.08 µM, partner dose 0.02 µM)	87.5%	101%	75.6%	95.5%	81.5%	93.1%	83.2%	74.5%	89%	76.8%	85.9%	81.1%	86.7%	84.8%	112%	84.2%
CS(=O)(=O)c1ccc(C(=O)Nc2ccc(Cl)c(-c3ccccn3)c2)c(Cl)c1 [vismodegib] + Cc1cc([N+](=O)[O-])ccc1NS(=O)(=O)c1cc(Cl)ccc1Cl [FH535] (first compound 1 µM, partner dose 1 µM)	94.8%	106%	92.3%	101%	87.7%	94.2%	87.5%	84.7%	79.4%	107%	89.1%	89.9%	105%	95.5%	92.5%	107%
CCCS(=O)(=O)Nc1ccc(F)c(C(=O)c2c[nH]c3ncc(Cl)cc23)c1F + CC(C)(C)c1cnc(CSc2cnc(NC(=O)C3CCNCC3)s2)o1 [SNS-032] (first compound 0.08 µM, partner dose 0.01 µM)	79.9%	88.4%	89.4%	81.8%	76.1%	88.9%	83.3%	95.9%	98.2%	57%	84.8%	97.7%	72.9%	71.2%	101%	107%
C=C(c1ccc(C(=O)O)cc1)c1cc2c(cc1C)C(C)(C)CCC2(C)C [Bexarotene] + C=CCn1c(=O)c2cnc(Nc3ccc(N4CCN(C)CC4)cc3)nc2n1-c1cccc(C(C)(C)O)n1 [MK1775] (first compound 2 µM, partner dose 0.02 µM)	100%	94.9%	76.4%	69.2%	71.8%	93.3%	105%	93.7%	103%	87.8%	99.3%	84.7%	91.6%	103%	95.7%	87%
NC1(c2ccc(-c3nc4ccn5c(=O)[nH]nc5c4cc3-c3ccccc3)cc2)CCC1 + OCCn1cc(-c2cnc3nnn(Cc4ccc5ncccc5c4)c3n2)cn1 [PF04217903] (first compound 0.4 µM, partner dose 1 µM)	98.2%	98.9%	95.1%	93.4%	65.9%	91.1%	93.5%	80.8%	79.4%	85.3%	84.9%	96.5%	96.1%	63.2%	94.9%	108%
CN(c1ncccc1CNc1nc(Nc2ccc3c(c2)CC(=O)N3)ncc1C(F)(F)F)S(C)(=O)=O + NCC(=O)Nc1ccc(-n2nc(C(F)(F)F)cc2-c2ccc3c(ccc4ccccc43)c2)cc1 [OSU03012] (first compound 0.08 µM, partner dose 1 µM)	82.7%	59.7%	68.6%	103%	60.2%	80.3%	61.1%	82%	78.8%	90.7%	69.6%	89.5%	64%	72.5%	79.6%	62.7%
CCCS(=O)(=O)Nc1ccc(F)c(C(=O)c2c[nH]c3ncc(Cl)cc23)c1F + C=CCn1c(=O)c2cnc(Nc3ccc(N4CCN(C)CC4)cc3)nc2n1-c1cccc(C(C)(C)O)n1 [MK1775] (first compound 0.08 µM, partner dose 0.02 µM)	86.8%	89.3%	117%	77.7%	64.1%	87.8%	93.2%	95%	70.2%	61.3%	77.3%	86.3%	80.8%	60%	97.2%	84.6%
C=C(c1ccc(C(=O)O)cc1)c1cc2c(cc1C)C(C)(C)CCC2(C)C [Bexarotene] + NC(=O)Nc1cc(-c2cccc(F)c2)sc1C(=O)N[C@H]1CCCNC1 [AZD7762] (first compound 2 µM, partner dose 0.02 µM)	102%	107%	93.4%	137%	90.9%	104%	112%	93%	132%	89.3%	89.5%	71.8%	102%	81.9%	77.9%	76.3%
NC1(c2ccc(-c3nc4ccn5c(=O)[nH]nc5c4cc3-c3ccccc3)cc2)CCC1 + Oc1nc(-c2ccc(C(F)(F)F)cc2)nc2c1CSCC2 [XAV939] (first compound 0.4 µM, partner dose 2 µM)	97%	95.6%	91.7%	137%	70.3%	93.3%	92.5%	81.2%	83.9%	90.6%	73.9%	93.4%	85.2%	102%	83.4%	97.6%
C=C(c1ccc(C(=O)O)cc1)c1cc2c(cc1C)C(C)(C)CCC2(C)C [Bexarotene] + Oc1nc(-c2ccc(C(F)(F)F)cc2)nc2c1CSCC2 [XAV939] (first compound 2 µM, partner dose 2 µM)	95%	92%	64.8%	82.4%	93.1%	95.7%	133%	92.1%	88.6%	89.1%	88.3%	58.7%	82.9%	93.3%	99.6%	98.1%
NC1(c2ccc(-c3nc4ccn5c(=O)[nH]nc5c4cc3-c3ccccc3)cc2)CCC1 + NCC(=O)Nc1ccc(-n2nc(C(F)(F)F)cc2-c2ccc3c(ccc4ccccc43)c2)cc1 [OSU03012] (first compound 0.4 µM, partner dose 1 µM)	97.2%	67%	99%	114%	74.1%	69%	58.6%	93.6%	106%	90.1%	86.4%	131%	88.6%	58.6%	106%	56.2%
